B1: Caulobacter ParB omega fusion; a variant is named by its letters at X, in order, B8GW30 (parent)
chain: MESVVVGEPGMSEGRRGLGRGLSALLGEVDAAPAQAPGEQLGGSREAPIEILQRNPDQPRRTFREEDLEDLSNSIREKGVLQPILVRPSPDTAGEYQIVAGERAWRAAQRAGLKTVPIMVRELDDLAVLEIGIIENVQRADLNVLEEALSYKVLMEKFERTQENIAQTIGKSXSHVANXMRLLXLPDEVQSYLVSGELTAXHARAIAAAADPVALAKQIIEGGLSVRETEALARKAPNLSAGKSKGGRPPRVKDTDTQALESDLSSVLGLDVSIDHRGSTGTLTITYATLEQLDDLCNRLTRGI

In all, about 81,000 sequences were measured (“one-hybrid fitness for binding NBS DNA”: median about -0.1, highest 2% from about 0.36 on). The list shows a part of the results.

The variants in the test derive from B1. Briefly: one-hybrid fitness for binding NBS DNA (the Noc-binding site; scaled: cognate 1, non-cognate 0); higher = stronger binding. The settings on record: with NBS DNA site. The essentials:
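Pre- and post-selection plasmids were Illumina-sequenced, three replicate libraries were pooled, and any variant with under 10 reads was removed. The libraries were Caulobacter ParB with four specificity codons randomised, selected in E. coli USO through a HIS3 reporter whose site is 19 bp from the promoter. Cells grew 48 hours at 37°C on M9 without histidine, with 0.1 mM IPTG and 5 mM 3-AT. Fitness is the log change in variant-to-wild-type read ratio, rescaled against cognate and non-cognate.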
On to LDDT, for which the “one-hybrid fitness for binding NBS DNA” value was no more than 0.2.

Regarding GVTY, the “one-hybrid fitness for binding NBS DNA” value is no more than 0.2.

Turning to NGRH, the “one-hybrid fitness for binding NBS DNA” value is no more than 0.2.

With NRYG, the “one-hybrid fitness for binding NBS DNA” value is no more than 0.2.

SATG: the “one-hybrid fitness for binding NBS DNA” value was no more than 0.2.

Regarding NAWA, the “one-hybrid fitness for binding NBS DNA” value is no more than 0.2.

In the case of SGDS, the “one-hybrid fitness for binding NBS DNA” value is no more than 0.2.

As to LQRR, the “one-hybrid fitness for binding NBS DNA” value is no more than 0.2.

As for TSIF, the “one-hybrid fitness for binding NBS DNA” value was no more than 0.2.

Consider GHPG, for which the “one-hybrid fitness for binding NBS DNA” value is no more than 0.2.

Consider SKQC, for which the “one-hybrid fitness for binding NBS DNA” value was no more than 0.2.

For the variant ERKL, the “one-hybrid fitness for binding NBS DNA” value was no more than 0.2.

Regarding AIGA, the “one-hybrid fitness for binding NBS DNA” value was no more than 0.2.

Regarding ERLT, the “one-hybrid fitness for binding NBS DNA” value is no more than 0.2.

As for TWAI, the “one-hybrid fitness for binding NBS DNA” value was no more than 0.2.

As for HMMA, the “one-hybrid fitness for binding NBS DNA” value is no more than 0.2.

As for PLLP, the “one-hybrid fitness for binding NBS DNA” value is no more than 0.2.

As to RYDD, the “one-hybrid fitness for binding NBS DNA” value is no more than 0.2.

As for ISLR, the “one-hybrid fitness for binding NBS DNA” value was no more than 0.2.

As to EPTN, the “one-hybrid fitness for binding NBS DNA” value is no more than 0.2.

With FQAG, the “one-hybrid fitness for binding NBS DNA” value is no more than 0.2.

For the variant FSSY, the “one-hybrid fitness for binding NBS DNA” value is no more than 0.2.

Consider LCEP, for which the “one-hybrid fitness for binding NBS DNA” value was no more than 0.2.

Regarding DCYS, the “one-hybrid fitness for binding NBS DNA” value is no more than 0.2.

On to TLEW, for which the “one-hybrid fitness for binding NBS DNA” value is no more than 0.2.

AHTF: the “one-hybrid fitness for binding NBS DNA” value was no more than 0.2.

Turning to TFYT, the “one-hybrid fitness for binding NBS DNA” value was no more than 0.2.

As to DSCY, the “one-hybrid fitness for binding NBS DNA” value is no more than 0.2.

Take MCLY: the “one-hybrid fitness for binding NBS DNA” value was no more than 0.2.

As to KFRT, the “one-hybrid fitness for binding NBS DNA” value was no more than 0.2.

For the variant RYFC, the “one-hybrid fitness for binding NBS DNA” value is no more than 0.2.

Regarding KMQA, the “one-hybrid fitness for binding NBS DNA” value was no more than 0.2.

SPSN: the “one-hybrid fitness for binding NBS DNA” value is no more than 0.2.

As for SGQI, the “one-hybrid fitness for binding NBS DNA” value is no more than 0.2.

Turning to LAPM, the “one-hybrid fitness for binding NBS DNA” value is no more than 0.2.

On to TGTD, for which the “one-hybrid fitness for binding NBS DNA” value is no more than 0.2.

QSAC: the “one-hybrid fitness for binding NBS DNA” value is no more than 0.2.

Consider FLMT, for which the “one-hybrid fitness for binding NBS DNA” value was no more than 0.2.

For GTHT, the “one-hybrid fitness for binding NBS DNA” value is no more than 0.2.

Consider YKSC, for which the “one-hybrid fitness for binding NBS DNA” value was no more than 0.2.

For AADL, the “one-hybrid fitness for binding NBS DNA” value was no more than 0.2.

With CYKS, the “one-hybrid fitness for binding NBS DNA” value was no more than 0.2.

For the variant DIHR, the “one-hybrid fitness for binding NBS DNA” value was no more than 0.2.

For IYHR, the “one-hybrid fitness for binding NBS DNA” value is no more than 0.2.

With WSMM, the “one-hybrid fitness for binding NBS DNA” value is no more than 0.2.

As for RAHD, the “one-hybrid fitness for binding NBS DNA” value was no more than 0.2.

For QSKK, the “one-hybrid fitness for binding NBS DNA” value came to 0.412.

As for QMIG, the “one-hybrid fitness for binding NBS DNA” value is no more than 0.2.

YWYV: the “one-hybrid fitness for binding NBS DNA” value is no more than 0.2.

In the case of CDTR, the “one-hybrid fitness for binding NBS DNA” value was no more than 0.2.

For VLMS, the “one-hybrid fitness for binding NBS DNA” value was no more than 0.2.

PVKI: the “one-hybrid fitness for binding NBS DNA” value is no more than 0.2.

With VWNC, the “one-hybrid fitness for binding NBS DNA” value is no more than 0.2.

Regarding VTKR, the “one-hybrid fitness for binding NBS DNA” value came out at 0.31.

In the case of KGLV, the “one-hybrid fitness for binding NBS DNA” value is no more than 0.2.

Consider QVQR, for which the “one-hybrid fitness for binding NBS DNA” value amounted to 0.368.

As to ASNV, the “one-hybrid fitness for binding NBS DNA” value was no more than 0.2.

As to ALHN, the “one-hybrid fitness for binding NBS DNA” value was no more than 0.2.

Regarding DHMG, the “one-hybrid fitness for binding NBS DNA” value was no more than 0.2.

ATEG: the “one-hybrid fitness for binding NBS DNA” value was no more than 0.2.

With HIQT, the “one-hybrid fitness for binding NBS DNA” value is no more than 0.2.

Consider YATG, for which the “one-hybrid fitness for binding NBS DNA” value is no more than 0.2.

QRVG: the “one-hybrid fitness for binding NBS DNA” value amounted to 0.232.

Consider SIGL, for which the “one-hybrid fitness for binding NBS DNA” value is no more than 0.2.

As to RGCC, the “one-hybrid fitness for binding NBS DNA” value was no more than 0.2.

As to KKVI, the “one-hybrid fitness for binding NBS DNA” value is no more than 0.2.

Regarding ESWT, the “one-hybrid fitness for binding NBS DNA” value was no more than 0.2.

On to KDST, for which the “one-hybrid fitness for binding NBS DNA” value is no more than 0.2.

Take TNNT: the “one-hybrid fitness for binding NBS DNA” value is no more than 0.2.

With RILG, the “one-hybrid fitness for binding NBS DNA” value was no more than 0.2.

Consider WQHS, for which the “one-hybrid fitness for binding NBS DNA” value was no more than 0.2.

As for GNWP, the “one-hybrid fitness for binding NBS DNA” value was no more than 0.2.

Regarding HISS, the “one-hybrid fitness for binding NBS DNA” value was no more than 0.2.

In the case of LFFG, the “one-hybrid fitness for binding NBS DNA” value is no more than 0.2.

As for YFHC, the “one-hybrid fitness for binding NBS DNA” value was no more than 0.2.

Take DIVV: the “one-hybrid fitness for binding NBS DNA” value was no more than 0.2.

For MWKR, the “one-hybrid fitness for binding NBS DNA” value is no more than 0.2.

The values are drawn from a collection of fitness landscapes (doi:10.1016/j.celrep.2020.107928).
